From PubChem BioAssay AID1671194 (National Center for Advancing Translational Sciences (NCATS), 2021)
Out of some 140,000 compounds screened, about 240 (0.17%) were called active. The inconclusive results got no clear call from the source; some entries with a clear call stand among them for comparison. Calls follow the shape of the dose curve; as a rule, active = well fitted inhibition curve with a large enough effect; inconclusive = small, poorly fitted or top-dose-only effect; inactive = no such curve, though single readings can be large or run the other way. Potencies beside an inconclusive call are fits to weak or partial responses and may not hold up.

Assay: Primary qHTS assay for inhibitors of alpha-synuclein gene (SNCA) expression; also: nearly all actives have a fitted effect of over 45% in size
Conditions: HEK-293 SNCA-luciferase knock-in, luminescence, 24 h; series mostly up to 57.2 µM
Potency is read from the fitted curve at half-maximal effect; tags tell the direction and shape of the fitted curve.

Structure (SMILES)	Potency
Cc1ccccc1NC(=O)Cn1nc2n(c1=O)CCCC2	inconclusive: 20 µM [inhibitor, single point]
CCCN1CC(C(=O)N2CCn3nc(Cc4ccccc4)cc3C2)CCC1=O (stereo not drawn)	inconclusive: 20 µM [inhibitor, single point]
Cc1oc(-c2ccccc2)nc1CN1CCCC(C(=O)NCCc2noc(-c3ccccc3)n2)C1 (stereo not drawn)	inconclusive: 10 µM [inhibitor, partial curve, poor fit]
Cc1cc(-c2cc3c(cn2)CN(CC2CCOCC2)CCN3)ccn1	inactive
COC[C@H]1CCCN1C(=O)CC[C@H]1CNC(=O)[C@@H]2[C@@H](CCN2C)N1C	inconclusive: 7.94 µM [inhibitor, single point]
O=C(c1ccc2c(c1)N(Cc1c(F)cccc1Cl)C(=O)c1ccccc1S2)N1CCOCC1	inconclusive: 2 µM [inhibitor, full curve]
CCOC(=O)N1CCN(Cc2nc3cc(NC(=O)C(C)C)ccc3n2C(C)C)CC1	inactive
C[C@@]12C(=O)OC(=O)[C@@]1(C)C1CCC2O1	active: 15.2 µM
O=C(NCCCN1CCN(c2ccc(F)cc2)CC1)c1cnn(-c2ccc(F)cc2)c1-n1cccc1	inconclusive: 39.8 µM [inhibitor, single point]
CCc1cccc(NS(=O)(=O)c2ccc(-n3cccn3)cc2)c1	inconclusive: 35.5 µM [inhibitor, single point]
O=C(Nc1ccc(F)cc1F)c1cc(-c2ccc(Cl)cc2)on1	inconclusive: 0.891 µM [inhibitor, full curve, poor fit]
C#CCN(C)C(=O)[C@@H]1CCCN1C1(C(=O)NC)CCCCC1	inactive
CCOc1ccc(NC(=O)CC2CCCN(c3cnn(CCOC)c(=O)c3)C2)cc1 (stereo not drawn)	inconclusive: 39.8 µM [inhibitor, single point]
O=C(Cc1ccc2c(c1)OCCCO2)NC1CCCc2c1[nH]c1ccccc21 (stereo not drawn)	inconclusive: 39.8 µM [inhibitor, single point]
CCn1cc(C(=O)N2CCN(c3cccc(Cl)c3)CC2)c2cc(OC)c(OC)cc2c1=O	inconclusive: 39.8 µM [inhibitor, partial curve, poor fit]
COc1ccc(NC(=O)C2CCCN(c3ncnc4c3nc3n4CCCCC3)C2)c(OC)c1 (stereo not drawn)	inconclusive: 39.8 µM [inhibitor, partial curve, poor fit]
CCn1nccc1C(=O)N1CCC(Nc2nccnc2OC)CC1	inactive
COc1ccc(-c2ccc3ncc(Nc4ccc(F)c(Cl)c4)n3n2)cn1	inconclusive: 6.31 µM [inhibitor, partial curve, poor fit]
O=C(NC1CCN(c2nccc(Nc3ccccc3F)n2)CC1)c1cccc(Cl)c1	inactive
COc1cc(NC(=O)c2cc3c(s2)-c2ccccc2OC3)cc(OC)c1OC	inconclusive: 12.6 µM [inhibitor, single point]
COc1ccccc1-c1cc2nc(C)c(CCC(=O)O)c(C)n2n1	inconclusive: 0.708 µM [inhibitor, partial curve, poor fit]
CCNC(=O)[C@@H]1C[C@H](N)CN1C(=O)c1ccc(NC(C)=O)cc1C	inactive

Structure (SMILES)	Potency
COc1ccc(CN2C[C@H]3CN(Cc4ccc([N+](=O)[O-])cc4)CCN3C2=O)cc1	inactive
CC(C)c1cc(C(=O)NC2CCN(c3ncccc3C#N)CC2)n(C)n1	inconclusive: 10 µM [inhibitor, partial curve, poor fit]
Cc1cccc(OCCc2noc(C3CCN(C(=O)c4cn[nH]c4)C3)n2)c1 (stereo not drawn)	inconclusive: 17.8 µM [inhibitor, partial curve, poor fit]
COc1cccc(NC(=O)CCN2CCN(c3ccccc3)CC2)c1	inconclusive: 3.55 µM [inhibitor, full curve]
N#Cc1ccc2nc([C@H]3CCN(Cc4ccccc4)C3)[nH]c2c1	inconclusive: 56.2 µM [inhibitor, single point]
CC(C)[C@H](CO)Nc1nc(Nc2cccc(Cl)c2)c2ncn(C(C)C)c2n1	inactive
CC(C)CCNC(=O)[C@H]1CN(Cc2ccccc2)C[C@H]1C(=O)O	inactive
CN(C)C(=O)c1ccc(OC2CCN(C(=O)c3ccc(F)c(F)c3)CC2)nc1	inconclusive: 10 µM [inhibitor, partial curve, poor fit]
Cc1ccc(OCC(=O)Nc2ccc(Cl)c(-c3nc4ccccc4[nH]3)c2)cc1C	inconclusive: 31.6 µM [inhibitor, single point]
COc1ccc(S(=O)(=O)N(CC(=O)N(C)Cc2ccccc2)c2ccc(Cl)cc2)cc1	inconclusive: 7.94 µM [inhibitor, full curve, poor fit]
CCn1cc2nc(SCc3ccc(C)cc3)n(CCc3ccccc3)c(=O)c2n1	inconclusive: 20 µM [inhibitor, partial curve, poor fit]
O=C1c2c(nc(COc3ccc(F)cc3F)n2Cc2ccccc2)NCCN1CC1CC1	inconclusive: 56.2 µM [inhibitor, single point]
COCc1nc(-c2ccc(OC3CN(C(=O)NCc4ccc(OC)cc4)C3)cc2)no1	inactive
Cc1cccc(C(C(=O)NCc2nn(C)c3ccc(C)cc23)N(C)C)c1 (stereo not drawn)	inactive
Cc1ccccc1Cc1c(C)nc2c(C(=O)N3CCC(Cc4nncn4CC4CC4)CC3)cnn2c1C	inactive
Cn1nc(C(=O)N2C[C@@H](CO)[C@H](c3ccncc3)C2)c2ccccc21	inconclusive: 28.2 µM [inhibitor, single point]
Cc1ccc(S(=O)(=O)N(C)CC2CCOC2)cc1C (stereo not drawn)	inactive
CCCOCCNC(=O)c1c(C)noc1-c1ccc2c(c1)OCO2	inactive
Cc1ccc(Cn2cc(CCC(=O)NCc3ccccc3F)c3ccccc32)cc1	inconclusive: 0.794 µM [inhibitor, full curve]
Cc1cc2nc3n(c(=O)c2n1CC(=O)Nc1ccc(F)cc1F)CCC3	inconclusive: 8.91 µM [inhibitor, single point]
O=[S+]([O-])(c1cccs1)N1CCC2(CC(c3cccc(C(F)(F)F)c3)=NO2)C1 (stereo not drawn)	inactive
